Measured values reported in the supplement of paper PMC8728848.
The list shows a part of the results.

Key:
Experiment in all cases: glycan array binding signal (z-score within array); higher = stronger binding
Conditions in all cases: glycan notation: IUPAC condensed, linker removed
[1] = target: Fuc(a1-2)Gal
How it was run: (§1)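 Glycan array data came from 3228 arrays in the Consortium for Functional Glycomics database, and only arrays with an available protein sequence were kept. Glycan names were put into IUPAC-condensed notation, and columns mapping to the same glycan were averaged. The binding signal is a within-array Z-score, averaged across arrays of one protein sequence run at different concentrations or buffers and across linkers. A negative Z-score can be read as non-binding.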

[2] = target: Fuc(a1-2)Gal(b1-3)GalNAc
How it was run: as §1

[3] = target: Fuc(a1-2)Gal(b1-3)GalNAc(a1-3)[Fuc(a1-2)]Gal(b1-4)Glc
How it was run: as §1

[4] = target: Fuc(a1-2)Gal(b1-3)GalNAc(a1-3)[Fuc(a1-2)]Gal(b1-4)GlcNAc
How it was run: as §1

[5] = target: Fuc(a1-2)Gal(b1-3)GalNAc(b1-3)Gal
How it was run: as §1

[6] = target: Fuc(a1-2)Gal(b1-3)GalNAc(b1-3)Gal(a1-4)Gal(b1-4)Glc
How it was run: as §1

[7] = target: Fuc(a1-2)Gal(b1-3)GalNAc(b1-4)[Neu5Ac(a2-3)]Gal(b1-4)Glc
How it was run: as §1

[8] = target: Fuc(a1-2)Gal(b1-3)GlcNAc
How it was run: as §1

[9] = target: Fuc(a1-2)Gal(b1-3)GlcNAc(b1-2)Man(a1-3)[Fuc(a1-2)Gal(b1-3)GlcNAc(b1-2)Man(a1-6)]Man(b1-4)GlcNAc(b1-4)GlcNAc
How it was run: as §1

[10] = target: Fuc(a1-2)Gal(b1-3)GlcNAc(b1-2)Man(a1-3)[Fuc(a1-2)Gal(b1-3)GlcNAc(b1-2)Man(a1-6)]Man(b1-4)GlcNAc(b1-4)[Fuc(a1-6)]GlcNAc
How it was run: as §1

[11] = target: Fuc(a1-2)Gal(b1-3)GlcNAc(b1-3)Gal(b1-4)Glc
How it was run: as §1

[12] = target: Fuc(a1-2)Gal(b1-3)GlcNAc(b1-3)GalNAc
How it was run: as §1

[13] = target: Fuc(a1-2)Gal(b1-3)GlcNAc(b1-3)[Fuc(a1-2)Gal(b1-3)GlcNAc(b1-6)]GalNAc
How it was run: as §1

[14] = target: Fuc(a1-2)Gal(b1-3)GlcNAc(b1-3)[Fuc(a1-3)[Gal(b1-4)]GlcNAc(b1-6)]Gal(b1-4)Glc
How it was run: as §1

[15] = target: Fuc(a1-2)Gal(b1-3)GlcNAc(b1-3)[Gal(b1-4)GlcNAc(b1-6)]Gal(b1-4)Glc
How it was run: as §1

[16] = target: Fuc(a1-2)Gal(b1-3)GlcNAc(b1-3)[Neu5Ac(a2-6)Gal(b1-4)GlcNAc(b1-6)]Gal(b1-4)Glc
How it was run: as §1

[17] = target: Fuc(a1-2)Gal(b1-3)GlcNAc6S
How it was run: as §1

[18] = target: Fuc(a1-2)Gal(b1-3)[Fuc(a1-4)]GlcNAc
How it was run: as §1

[19] = target: Fuc(a1-2)Gal(b1-3)[Fuc(a1-4)]GlcNAc(b1-2)Man(a1-3)[Fuc(a1-2)Gal(b1-3)[Fuc(a1-4)]GlcNAc(b1-2)Man(a1-6)]Man(b1-4)GlcNAc(b1-4)GlcNAc
How it was run: as §1

[20] = target: Fuc(a1-2)Gal(b1-3)[Fuc(a1-4)]GlcNAc(b1-2)Man(a1-6)[Fuc(a1-2)Gal(b1-3)[Fuc(a1-4)]GlcNAc(b1-2)Man(a1-3)]Man(b1-4)GlcNAc(b1-4)[Fuc(a1-6)]GlcNAc
How it was run: as §1

[21] = target: Fuc(a1-2)Gal(b1-3)[Fuc(a1-4)]GlcNAc(b1-3)[Fuc(a1-3)[Gal(b1-4)]GlcNAc(b1-6)]Gal(b1-4)Glc
How it was run: as §1

[22] = target: Fuc(a1-2)Gal(b1-3)[Fuc(a1-4)]GlcNAc(b1-3)[Gal(b1-4)GlcNAc(b1-6)]Gal(b1-4)Glc
How it was run: as §1

[23] = target: Fuc(a1-2)Gal(b1-4)Glc
How it was run: as §1

[24] = target: Fuc(a1-2)Gal(b1-4)Glc6S
How it was run: as §1

[25] = target: Fuc(a1-2)Gal(b1-4)GlcNAc
How it was run: as §1

[26] = target: Fuc(a1-2)Gal(b1-4)GlcNAc(b1-2)Man
How it was run: as §1

[27] = target: Fuc(a1-2)Gal(b1-4)GlcNAc(b1-2)Man(a1-3)[Fuc(a1-2)Gal(b1-4)GlcNAc(b1-2)Man(a1-6)]Man(b1-4)GlcNAc(b1-4)GlcNAc
How it was run: as §1

[28] = target: Fuc(a1-2)Gal(b1-4)GlcNAc(b1-2)Man(a1-3)[Fuc(a1-2)Gal(b1-4)GlcNAc(b1-2)Man(a1-6)]Man(b1-4)GlcNAc(b1-4)[Fuc(a1-6)]GlcNAc
How it was run: as §1

[29] = target: Fuc(a1-2)Gal(b1-4)GlcNAc(b1-2)[Fuc(a1-2)Gal(b1-4)GlcNAc(b1-4)]Man(a1-3)[Fuc(a1-2)Gal(b1-4)GlcNAc(b1-2)Man(a1-6)]Man(b1-4)GlcNAc(b1-4)GlcNAc
How it was run: as §1

[30] = target: Fuc(a1-2)Gal(b1-4)GlcNAc(b1-3)Gal(b1-4)GlcNAc
How it was run: as §1

B1: StcE (Escherichia coli), O82882.2 (protein)
chain: ADNNSAIYFNTSQPINDLQGSLAAEVKFAQSQILPAHPKEGDSQPHLTSLRKSLLLVRPVKADDKTPVQVEARDDNNKILGTLTLYPPSSLPDTIYHLDGVPEGGIDFTPHNGTKKIINTVAEVNKLSDASGSSIHSHLTNNALVEIHTANGRWVRDIYLPQGPDLEGKMVRFVSSAGYSSTVFYGDRKVTLSVGNTLLFKYVNGQWFRSGELENNRITYAQHIWSAELPAHWIVPGLNLVIKQGNLSGRLNDIKIGAPGELLLHTIDIGMLTTPRDRFDFAKDKEAHREYFQTIPVSRMIVNNYAPLHLKEVMLPTGELLTDMDPGNGGWHSGTMRQRIGKELVSHGIDNANYGLNSTAGLGENSHPYVVAQLAAHNSRGNYANGIQVHGGSGGGGIVTLDSTLGNEFSHEVGHNYGLGHYVDGFKGSVHRSAENNNSTWGWDGDKKRFIPNFYPSQTNEKSCLNNQCQEPFDGHKFGFDAMAGGSPFSAANRFTMYTPNSSAIIQRFFENKAVFDSRSSTGFSKWNADTQEMEPYEHTIDRAEQITASVNELSESKMAELMAEYAVVKVHMWNGNWTRNIYIPTASADNRGSILTINHEAGYNSYLFINGDEKVVSQGYKKSFVSDGQFWKERDVVDTREARKPEQFGVPVTTLVGYYDPEGTLSSYIYPAMYGAYGFTYSDDSQNLSDNDCQLQVDTKEGQLRFRLANHRANNTVMNKFHINVPTESQPTQATLVCNNKILDTKSLTPAPEGLTYTVNGQALPAKENEGCIVSVNSGKRYCLPVGQRSGYSLPDWIVGQEVYVDSGAKAKVLLSDWDNLSYNRIGEFVGNVNPADMKKVKAWNGQYLDFSKPRSMRVVYK
[1]
  glycan array binding signal (z-score): -0.233
[2]
  glycan array binding signal (z-score): -0.144
[3]
  glycan array binding signal (z-score): -0.142
[4]
  glycan array binding signal (z-score): -0.155
[5]
  glycan array binding signal (z-score): -0.591
[6]
  glycan array binding signal (z-score): -0.588
[7]
  glycan array binding signal (z-score): 0.19
[8]
  glycan array binding signal (z-score): -0.202
[9]
  glycan array binding signal (z-score): 1.02
[10]
  glycan array binding signal (z-score): 1.21
[11]
  glycan array binding signal (z-score): -0.144
[12]
  glycan array binding signal (z-score): 0.003
[13]
  glycan array binding signal (z-score): 2.38
[14]
  glycan array binding signal (z-score): -0.115
[15]
  glycan array binding signal (z-score): -0.139
[16]
  glycan array binding signal (z-score): -0.161
[17]
  glycan array binding signal (z-score): 0.19
[18]
  glycan array binding signal (z-score): -0.082
[19]
  glycan array binding signal (z-score): -0.163
[20]
  glycan array binding signal (z-score): -0.1
[21]
  glycan array binding signal (z-score): -0.147
[22]
  glycan array binding signal (z-score): -0.167
[23]
  glycan array binding signal (z-score): -0.065
[24]
  glycan array binding signal (z-score): -0.155
[25]
  glycan array binding signal (z-score): 0.056
[26]
  glycan array binding signal (z-score): -0.132
[27]
  glycan array binding signal (z-score): 0.128
[28]
  glycan array binding signal (z-score): 1.14
[29]
  glycan array binding signal (z-score): -0.002
[30]
  glycan array binding signal (z-score): -0.153
